The source of these data is publication PMC12136788.

Some of the results follow.

T1: UNK ZnF1-3 (human, UniProt Q9C0B0 31-174)
T1 sequence: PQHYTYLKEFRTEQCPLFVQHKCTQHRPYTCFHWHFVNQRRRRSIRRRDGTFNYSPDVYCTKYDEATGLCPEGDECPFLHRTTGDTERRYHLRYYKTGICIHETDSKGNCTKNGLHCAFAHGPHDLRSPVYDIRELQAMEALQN

B1: chr17:65944371:65944372:-_ENSMUSG00000024091_ENSMUST00000024897|mus_mus|FALSE|FALSE (ssRNA)
RNA: GGGAGUUCUACAGUCCGACGAUCGGGCCGCACACAGUACCGGCGAGGUGCUGUAGUCUUCACUUUGAAACACACUUUUCUAUCCGAUGGAUUUUGCAAUUUAAGAUUUGUAGUGACUACAUCUGUGAAGGGGCCUUUGAAUUUCAACAGAGGAUUGAGCAUCA
B2: chr9:64574521:64574522:-_ENSMUSG00000004771_ENSMUST00000172298|mus_hu|FALSE|FALSE (ssRNA)
RNA: GGGAGUUCUACAGUCCGACGAUCACUGCCCUGAGAUGACGUAGAUCACUCUUAUUGCCCACAAGCAUGAUAACAAUGUUACUAUCAGCAUGAUCUCUCAGUUCUUUCAGCCAUCGCUCUACAUUUUCAUAUGUGAGAUGUUUACAACAGAGGAUUGAGCAUCA
B3: chr2:187370260:187370261:+_ENSG00000065548_ENST00000337859|hu_hu|FALSE|FALSE (ssRNA)
RNA: GGGAGUUCUACAGUCCGACGAUCUGCUUUCCCUGCUUUGAAGUCAGCUUUCCUUCUUUCCAUAUCUUGUUCAAGUUUAUCAAUCUUUUCUUGUCUUUUCCUUUUCUUCCAGGCAAGAAAAGAUUCUAGAGUGAUUUUGGUAACCAACAGAGGAUUGAGCAUCA
B4: 127049554_127049674_269_CDS_ENSMUSG00000031979_ENSMUST00000034460|mouse|control|control (ssRNA)
RNA: GGGAGUUCUACAGUCCGACGAUCGACAAAGUCGGCGUAGUCCUUGUUGAUGAGCUCCACCAUGGCCGUCUUCAGCAGCUUGUAAUACAGCUCCAGGUCGUCUCUCAGCUCCUCCAGCUGCACCCGCUUCCUGCAGUCAGACACCAACAGAGGAUUGAGCAUCA
B5: 76621201_76621321_621_3pUTR_ENSG00000089916_ENST00000261530|human|control|control (ssRNA)
RNA: GGGAGUUCUACAGUCCGACGAUCACACUCCAUCCUUUCUUUCCUUCCUGUUUUGCUUAGGAAAGUCCUAUUUUCUGCUGAUUCACACAAUCCGUGGCCUGAUGAGGUCCAGGGAGUAUUCUCCUUCCAGCGGGACAGACGCUGCAACAGAGGAUUGAGCAUCA
B6: 32243022_32243862_1492_3pUTR_ENSMUSG00000024384_ENSMUST00000025243|mouse|control|control (ssRNA)
RNA: GGGAGUUCUACAGUCCGACGAUCGAUUCUCCAAAUAUAUCUGCAAUAAGAUUUUCUUCUUCAUUGCCGGACUCACUGUCACUCCCAAACAGGUCCUUGUCUUCCUUCUUCUUCACAGAAGACUCUUCUUUCCCGGCUUCUUCUCAACAGAGGAUUGAGCAUCA
B7: 5118651_5119987_515_CDS_ENSMUSG00000050697_ENSMUST00000051186|mouse|control|control (ssRNA)
RNA: GGGAGUUCUACAGUCCGACGAUCAUUGGGUGAGCCACAGCUUGUUCUUAAAAAUUCACCAUCUGACAUCAUGUUUGAAAGACCAAAGUCGGCUAUCUUUGCAUUCAUGUGUGCAUCAAGCAGGACGUUCUCAGGUUUCAAAUCCAACAGAGGAUUGAGCAUCA
B8: 135486841_135487110_807_ncRNA_ENSMUSG00000040532_ENSMUST00000154469|mouse|control|control (ssRNA)
RNA: GGGAGUUCUACAGUCCGACGAUCCUACAACAACCAAUCGUUCCACAACAUCUGGCCUCUGCAGUGCCAGGAGCAUGGCUGUCUUUCCUCCCAUGCUGUGGCCAACGAGGACGCAGGGCACCAGACCCAGCUGUGGAAGGAGGCCAACAGAGGAUUGAGCAUCA
B9: 32067658_32067778_2546_3pUTR_ENSMUSG00000039262_ENSMUST00000036691|mouse|control|control (ssRNA)
RNA: GGGAGUUCUACAGUCCGACGAUCGACUUCGGGUGGGGCAGUGAGUAGCCUUUGUUCUGCAGUGCCAUGUAGCCCUCUGGGCUCCACACAGGAGCUGGGUCGAGGGCGGUCACUUUCCGUUCUUGGAGCGAGGGCACACAGUUUCAACAGAGGAUUGAGCAUCA
B10: chr7:149068622:149068623:-_ENSMUSG00000025139_ENSMUST00000001950|mus_hu|mus_mus_mus_hu_False|48_68 (ssRNA)
RNA: GGGAGUUCUACAGUCCGACGAUCGUGAGGCCUCUGAGUGUGGCUUGUGGUCUGUCCUGGGUUAGAGCUGCUGGUAACACGGAACAUACCACUUAAGACGUUCCAGUCCCGCCUGACACCUUCAUUCCCAAUGGAGAAGAAAUCCAACAGAGGAUUGAGCAUCA
B11: chr6:35837335:35837336:-_ENSG00000096063_ENST00000361690|hu_hu|motif|central (ssRNA)
RNA: GGGAGUUCUACAGUCCGACGAUCUUGCUCUUGUUCAUCUUCACAGGGUAUCUCUGCCCGAAUGCUUUCUUGAAGUUGGCGGAUGUGUUGUUCACUGAAUGACUGACCUACAGUUGAGGAAGACUGGCACACCAUGGUGUCUGACAACAGAGGAUUGAGCAUCA
B12: chr3:179287964:179287965:+_ENSG00000136518_ENST00000429709|hu_hu|hu_hu_hu_mus_True|18_48 (ssRNA)
RNA: GGGAGUUCUACAGUCCGACGAUCCUUGAGUGGUGAGAUGGCCUCCAUGUUCUCCCUGGGCACGCGGAGGGCAUUGGUGUCUAUGUAGUAGGUGGGACCGCCCUGCUUGCCUUUGUCGCCAUCUAUUUCCAUCAUUGUACUUCCCAACAGAGGAUUGAGCAUCA
B13: chr2:160604868:160604869:+_ENSG00000136536_ENST00000409591|perfect_dup|motif|central (ssRNA)
RNA: GGGAGUUCUACAGUCCGACGAUCUGAAUCUGACUCAGAGCUAUGAUUGUGGCUAAGAGAUGACAAACCCCAUCUUCGCCGGAGAAAUCGAAAUCCCUGAGAAGCUUCAGAUGCCCUAUUAUCGGGAACUUCAGAAGCUGAUGGCAACAGAGGAUUGAGCAUCA
B14: 7935174_7935294_3058_CDS_ENSG00000183248_ENST00000539422|human|control|control (ssRNA)
RNA: GGGAGUUCUACAGUCCGACGAUCAGCGGCAAGAAGGGGUGGGACCCGUGGAGGGGGCGUGGCCGAAGGAGACAUUGGGGGAGAGGCAGGGGGAGAGGGUGGGACCUGCAGAGGAGGCGCAGCGAGAGGGGGUGGGGCCUGUGGCAACAGAGGAUUGAGCAUCA
B15: chr5:128440902:128440903:+_ENSG00000066583_ENST00000173527|hu_hu|motif|central (ssRNA)
RNA: GGGAGUUCUACAGUCCGACGAUCUUGAACCGUGCUCCCAAGACCUUUAGGGUAUUGUUCUGUUACAAUAACAGGAAUUCCGGAAAUCCGGGCCCCUUGCAACAAUCUCUGUCCCACGCUAAUAAUAUCCCCAAAAUACUUGAUCAACAGAGGAUUGAGCAUCA
B16: chr17:87533601:87533602:+_ENSMUSG00000037104_ENSMUST00000041369|mus_hu|motif|central (ssRNA)
RNA: GGGAGUUCUACAGUCCGACGAUCUGUUGAAUGUGGGCUCACAGGAGCUGUAUGCUGUUUAAUCAAAUGCCAUUUUUGGGCGGAAUCUGAGCCAGCAGGAAAAGGGCAUUUCUCAAGCAUUAAUUCAGAGAGAUGGAUUUUUCUCAACAGAGGAUUGAGCAUCA
B17: chrX:102632674:102632675:+_ENSG00000166681_ENST00000361298|hu_mus|motif|central (ssRNA)
RNA: GGGAGUUCUACAGUCCGACGAUCGUGGUUAGACAGCUCCCCCAUAAGGAUGCGUAGACAAUUUCUCAGCUGUAGCUCCCGGAGCUUUCUCCGGAUCUCUCUCAUCUCCUCCAUGAACAUUUCCAUAUCAUCUCCAUCUCCACCCAACAGAGGAUUGAGCAUCA
B18: chr3:10015032:10015033:+_ENSMUSG00000027533_ENSMUST00000029046|mus_mus|mus_mus_mus_hu_True|38_68 (ssRNA)
RNA: GGGAGUUCUACAGUCCGACGAUCGUUUUUACCAUCACAAGUGAUGAUACAAUCUGGCUUGGCCAUUGCAGCCAUCUUUCGCAAAGCUAUUCCCACUCCUAGCUCUUUCAUGUAUUCAUCAAAGCCUUUGCUGUCCACCAGGCGCAACAGAGGAUUGAGCAUCA
B19: chr17:53623224:53623225:+_ENSMUSG00000017831_ENSMUST00000017975|perfect_dup|FALSE|FALSE (ssRNA)
RNA: GGGAGUUCUACAGUCCGACGAUCGGCCCGUUGGGUCUUGUUGCUCCUCGAUUAGCCAUGUCCAAAUUUUAAAGAAGUCCCUAAUUUCAGAUUCCUAAAUGAACUUCCAGGAUGCAAGGCAUUAAUUUUGUUUUCUUUCUGGAGCAACAGAGGAUUGAGCAUCA
B20: chrX:12171913:12171914:+_ENSMUSG00000031007_ENSMUST00000033313|perfect_dup|motif|central (ssRNA)
RNA: GGGAGUUCUACAGUCCGACGAUCCCUGGUAUAGGCCAAUUUCCAUUUCGGAAAACAACAGACCCUGGCGAUCUUAAUAUGCGGAAUUCAUUCCCUAAAGCACCCGCCACCAGAAAGAACAGGAGAACGACCAGCACAGCCAUGCAACAGAGGAUUGAGCAUCA
B21: 44958381_44959107_521_CDS_ENSG00000175274_ENST00000395648|human|control|control (ssRNA)
RNA: GGGAGUUCUACAGUCCGACGAUCGGGGGUCUUGCUGGUCACCUGGGCUCCAUCAAAGACCGCAUCAUAGAGCUGGUCAGGGAAGGCAAGCGCCAUGAUGGCAAUGCCGGAGAAGAGCACAGCAGAGACGAACUGCCAGACCCUCAACAGAGGAUUGAGCAUCA
B22: chr12:111951244:111951245:-_ENSG00000204842_ENST00000535949|hu_hu|motif|central (ssRNA)
RNA: GGGAGUUCUACAGUCCGACGAUCUCUUGGAACCCCACUGACCACUGAUGACCACGUUCCCCCCGAGGGACUGGUCCUUGCGGCUGGAGGAGUAGCUGCUUCACUGGGUGGGUUGUGGGAUACAAAUUCUAGGCCACUGGAUAUCAACAGAGGAUUGAGCAUCA

In the test the target is T1, UNK ZnF1-3. The test can be described thus: nsRBNS (natural sequence RNA bind-n-seq); RBNS binding buffer (assumed for nsRBNS): 25 mM Tris pH 7.5, 150 mM KCl, 3 mM MgCl2, 0.01% Triton X-100, 500 ug/ml BSA, 20 U/ml SUPERase-In, 4 C; UNK is unkempt and MSI1 is Musashi-1; names of the RNAs are library labels; protein concentration not given here; high values mean tight binding.
As for B1, the binding signal was determined as 0.838 enrichment R.
For B2 the value was 0.625 enrichment R; for B3, 0.408 enrichment R; for B4, 1.36 enrichment R.
In turn, B5 came in with a binding signal of 0.79 enrichment R.
B6 returned a binding signal of 0.569 enrichment R.
Regarding B7, the binding signal was 1.13 enrichment R.
Molecule B8 registered a binding signal of 0.609 enrichment R.
For B9 the value was 0.775 enrichment R.
The molecule B10 registered a binding signal of 0.656 enrichment R.
Regarding B11, the binding signal was found to be 0.589 enrichment R.
Next, B12: 0.524 enrichment R; B13: 0.586 enrichment R; B14: 0.675 enrichment R.
In turn, B15 returned a binding signal of 1.08 enrichment R.
For B16 the value was 1.19 enrichment R; for B17, 1.17 enrichment R.
The molecule B18 showed a binding signal of 0.773 enrichment R.
Molecule B19 displayed a binding signal of 1.09 enrichment R.
For B20 the value was 1.44 enrichment R.
Take B21: the binding signal came to 1.14 enrichment R.
In turn, B22 displayed a binding signal of 0.716 enrichment R.
